Source: ChEMBL document CHEMBL4888484, “Replenishing the malaria drug discovery pipeline: Screening and hit evaluation of the MMV Hit Generation Library 1 (HGL1) against asexual blood stage Plasmodium falciparum ,using a nano luciferase reporter read-out” (2022)
The whole screen tested about 150,000 compounds, of which about 540 (0.36%) showed an effect of 50% or more. The list shows a part of the results.

test system: Plasmodium falciparum; assay: Primary screen in NF54 nanoGlo assay, in single point, at 2uM, 72h; a lower Z score goes with more inhibition; assay type: functional, Erythrocyte; conditions: timepoint 72 hour

Row | Structure (SMILES) | % Inhibition [%] | Z score
1 | CS(=O)(=O)N1CCC(C(=O)N(CCc2cccs2)C2CCOCC2)CC1 | -11 | 1.75
2 | Cc1ccccc1[C@H](CNC(=O)N(C)Cc1ccon1)N1CCC(C)CC1 | -14 | 2.72
3 | CC(=O)Nc1nc(C)c(S(=O)(=O)N[C@H]2C[C@H]3CN(C)CCN3C2)s1 | 2 | -0.29
4 | O=C(NCc1nccnc1-c1cccs1)c1ccccn1 | -11 | 2
5 | Cc1cc([C@H](C)NS(=O)(=O)c2c(C)nn(C)c2C)c(C)o1 | -3 | 0.46
6 | Cc1cc(OC2CN(C(=O)c3sc(C)nc3C)C2)n2ncnc2n1 | -13 | 2.52
7 | Cc1ccc(C(=O)COc2ccccc2N2C(=O)C3CCCCC3C2=O)cc1 (stereo unspecified) | -17 | 2.23
8 | Cc1ccc(S(=O)(=O)N2CCN(C(=O)CN3CCCC3)C2)cc1 | -5 | 0.77
9 | CCOCc1ccccc1CNC(=O)Nc1cc(C)ns1 | -44 | 5.17
10 | CCOC(=O)c1cccnc1N[C@H]1CCc2nc(C)nn2C1 | -9 | 1.15
11 | O=C1[C@@H]2CC[C@@H](CN(c3ncnc4[nH]ccc34)C2)N1Cc1ccccc1 | -20 | 1.89
12 | Cc1ccc([C@@H](NCC2CN(S(C)(=O)=O)C2)C2CCCC2)cc1 | -6 | 0.57
13 | Cc1ccc(S(=O)(=O)[C@H](C#N)c2nc3ccccc3nc2N2CCN(c3ccccc3)CC2)cc1 | -13 | 1.2
14 | Cc1nc(N2CCCCC2)ncc1-c1cc(=O)[nH]c(Nc2ccc(F)cc2)n1 | -14 | 1.95
15 | Cc1cccc(N2CCC(n3ccnc3-c3cc4n(n3)CCNC4)CC2)c1 | -1 | 0.22
16 | Cc1c(N2CCOCC2)c(C)n(Cc2c(F)cccc2F)c1C(=O)NCc1ccc2c(c1)OCO2 | 1 | -0.09
17 | CCc1nnc(CN2CCC3(CCC(=O)N([C@H]4CC[C@H](O)CC4)C3)CC2)o1 | -10 | 0.92
18 | CCOC(=O)c1cc(C(C)(C)C)n(C2CCN(C(=O)[C@H](C)Oc3ccccc3)CC2)n1 | -9 | 1.39
19 | O=C(COc1cccc2c1CCC2=O)NC1CC1 | -13 | 2.32
20 | C#CCC1(C(=O)Nc2ccc3[nH]ccc3c2)CCCCC1 | 12 | -2
21 | O=C(Cn1cnnn1)NC1(c2cc(C(F)(F)F)ccc2Cl)CC1 | -51 | 5.95
22 | O=C(Cc1ccc(F)cc1)Nc1ccc(N2CCN(C(=O)c3ccc(Cl)cc3Cl)CC2)nc1 | -7 | 1.08
23 | O=C([C@H]1C[C@@H]1c1ccccc1)N1CCC(OCCc2ccccc2)CC1 | 3 | -0.48
24 | O=C(N[C@H]1CCc2nccn2C1)c1csc(-c2cccs2)n1 | 5 | -1.09
25 | COc1ccc(CC(=O)Nc2nnc(-c3ccco3)o2)cc1C | -2 | 0.22
26 | CCCNC(=O)CN(CCC)C(=O)Cc1ccccc1OC | 1 | -0.14
27 | Cc1cc(C(=O)N[C@H]2CCN(Cc3ccc(N(C)C)nc3)C[C@@H]2O)no1 | -4 | 0.42

Row | Structure (SMILES) | % Inhibition [%] | Z score
28 | COc1cccc2c1OCc1cn(nn1)[C@H]1CN(C(=O)Cc3ccc4c(c3)OCO4)C[C@H]1CC(=O)NCCN(C)C2=O | -13 | 1.42
29 | CCC=CCCn1ccc(C2(C)OCCO2)cc1=O | -5 | 1.06
30 | Cc1nc(N2Cc3cnc(CC(C)C)nc3C2)no1 | -5 | 0.48
31 | Nc1nc(NCCO)cc(-c2ccc(OCc3ccccc3)nc2)n1 | 2 | -0.42
32 | COc1cccc(CNS(=O)(=O)c2ccc(-c3onc(C)c3C)s2)c1 | -4 | 0.36
33 | CCNC(=O)N1CC(=O)N(CC2CC2)C1 | -9 | 1.57
34 | CN(C(=O)c1cccc2cn[nH]c12)C1CCCCCC1 | 0 | 0.06
35 | CC1CC(C)(C)CC(CO)(NC(=O)C2CCOC2C)C1 (stereo unspecified) | -11 | 1.07
36 | Cc1ccc(CC2CN(C(=O)Nc3nn(C4CCCCC4)cc3C)C2)cc1 | -14 | 2.7
37 | CCc1nc2ccccc2c(N2CCO[C@H](c3nc(C)n[nH]3)C2)c1C | -15 | 1.54
38 | CCN(CC)C(=O)CN1CCCN(CC(=O)Nc2c(C#N)c(C)c(C)n2Cc2ccco2)CC1 | -7 | 1.31
39 | O=C(NC[C@H]1COc2ccccc2O1)C1CCN(S(=O)(=O)c2ccc3c(c2)CCC3)CC1 | -3 | 0.39
40 | O=C(NC[C@H]1Cn2ccnc2CO1)Nc1ccccc1 | 26 | -2.95
41 | CC1CCC(Oc2cc(CNS(=O)(=O)c3cnnn3C)ccn2)CC1 (stereo unspecified) | -4 | 0.56
42 | O=C(C1CCOC1)N1CCCC(NS(=O)(=O)c2ccccc2)C1 (stereo unspecified) | 9 | -0.9
43 | Cc1cc(N2CCN(c3c(N)c(C)nn3C)CC2)c(C#N)c(C)n1 | 9 | -1.51
44 | COc1cccc(NC(=O)N[C@H]2CCCS(=O)(=O)C2)c1 | -6 | 1
45 | Cc1n[nH]c(C(C)C)c1C(=O)N1CCCN(Cc2ccc(Cl)cc2)CC1 | -10 | 1.31
46 | Cc1ccc(OCC2(CS(C)(=O)=O)CC2)nc1 | -2 | 0.31
47 | CC(=Cc1ccccc1)CNCCn1cccn1 | 0 | 0.05
48 | CC1(C)C2CCCN(C(=O)Cn3c(=O)cnc4ccccc43)C1C2 (stereo unspecified) | -20 | 2.66
49 | CCn1nccc1C(=O)N1CCC[C@@]2(CCC(=O)N(Cc3cnc(C)cn3)C2)C1 | -11 | 1.18
50 | Cc1ccc(N2CCCN(Cc3ccc(C)c(C)c3)C2=O)c(NC(=O)OCc2ccccc2)c1 | 18 | -2.21
51 | Brc1ccc2c(c1)C1(CCCC1)CN2Cc1nnc(C2CC2)o1 | 3 | -0.44
52 | CN1CCN(C(=O)[C@H]2CC[C@@H](O)CC2)C[C@H]1c1ccccc1 | -13 | 2.56
53 | O=C(Nc1cccc2ccccc12)c1cc(=O)[nH]c2ccccc12 | -6 | 0.78
